In publication PMC4336329 (PLoS ONE, 2015):
Hit rate of the full screen: of about 310,000 compounds, about 14,000 (4.5%) showed an effect of 50% or more. Effects have a minus sign here. This is one part of the list.

Target: human ether-à-go-go-related gene (hERG) potassium channel (human, UniProt Q12809)
Experiment: primary screen, population patch clamp on CHO cells stably expressing hERG
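Note: peak tail current of the secondary pulse compared with the same well before compound.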

Chain of human ether-à-go-go-related gene (hERG) potassium channel (Q12809 whole entry, looked up): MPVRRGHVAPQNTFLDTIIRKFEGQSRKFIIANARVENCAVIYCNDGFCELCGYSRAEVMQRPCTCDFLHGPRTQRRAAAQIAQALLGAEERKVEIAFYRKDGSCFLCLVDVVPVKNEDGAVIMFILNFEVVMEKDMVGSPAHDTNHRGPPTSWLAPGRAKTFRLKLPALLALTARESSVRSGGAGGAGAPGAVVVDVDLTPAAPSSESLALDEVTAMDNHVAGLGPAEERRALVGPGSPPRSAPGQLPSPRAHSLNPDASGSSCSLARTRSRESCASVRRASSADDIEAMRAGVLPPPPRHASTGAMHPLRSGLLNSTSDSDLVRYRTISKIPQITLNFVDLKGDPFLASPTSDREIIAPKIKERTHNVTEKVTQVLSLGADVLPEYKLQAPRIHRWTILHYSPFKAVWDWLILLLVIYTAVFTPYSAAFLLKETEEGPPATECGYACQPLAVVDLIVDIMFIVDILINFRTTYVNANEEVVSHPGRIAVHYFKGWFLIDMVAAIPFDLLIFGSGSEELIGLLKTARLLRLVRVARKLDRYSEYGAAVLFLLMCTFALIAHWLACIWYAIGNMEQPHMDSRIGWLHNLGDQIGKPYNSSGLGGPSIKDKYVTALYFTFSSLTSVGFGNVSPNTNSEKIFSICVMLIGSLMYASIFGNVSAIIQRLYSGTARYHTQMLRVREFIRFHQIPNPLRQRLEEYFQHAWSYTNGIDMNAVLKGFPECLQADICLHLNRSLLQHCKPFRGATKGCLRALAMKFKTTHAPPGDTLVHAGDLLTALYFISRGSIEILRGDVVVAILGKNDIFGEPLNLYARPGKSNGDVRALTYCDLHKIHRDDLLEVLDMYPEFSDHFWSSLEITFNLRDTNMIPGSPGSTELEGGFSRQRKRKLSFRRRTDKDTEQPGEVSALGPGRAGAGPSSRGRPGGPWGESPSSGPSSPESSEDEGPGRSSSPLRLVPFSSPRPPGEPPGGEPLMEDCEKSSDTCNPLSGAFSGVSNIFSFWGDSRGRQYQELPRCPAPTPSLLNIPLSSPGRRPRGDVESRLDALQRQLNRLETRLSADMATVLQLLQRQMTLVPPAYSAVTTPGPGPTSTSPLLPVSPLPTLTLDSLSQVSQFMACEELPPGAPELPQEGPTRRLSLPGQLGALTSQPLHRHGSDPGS

| SMILES | hERG current change (%, negative = inhibition) at 10uM [%] |
| --- | --- |
| Clc1nc2sccn2c1/C=N/n1cnc2ccccc21 | -10 |
| O=c1c2ccccc2[nH]c(=S)n1CCN1CCCCC1 | -1.11 |
| Cc1ccc(C(C(=O)NCC2CCCO2)N(C(=O)c2snc(C(N)=O)c2N)c2ccc(F)cc2)o1 (centres unmarked) | 8.46 |
| Cc1cccc(C)c1N=C1SC(CC(=O)Nc2c(C)cccc2C)C(=O)N1CCc1ccccn1 (centres unmarked) | -1.86 |
| CCCC(=O)Nc1nc(CC(=O)OCC)cs1 | 9.54 |
| CCOC(=O)N1CCN(C(=S)NC2CCCC2)CC1 | -28.2 |
| N#CCSc1ncnc2c1cnn2CCO | 23.9 |
| COc1ccc(C(=O)NC(=S)Nc2ccc(S(N)(=O)=O)cc2)cc1 | 12 |
| CCc1ccc(OCC(=O)OCC(=O)c2c(N)n(C)c(=O)n(C)c2=O)cc1 | 10.2 |
| CC(C)(C)c1cc(CCC(=O)N2CCCC2)cc(C(C)(C)C)c1O | -0.681 |
| CCOC(=O)C1(CCOc2ccccc2)CCN(Cc2ccc(OC)c(O)c2)CC1 | -82.2 |
| O=C(CC(=O)N/N=C\c1ccc([N+](=O)[O-])cc1)NCCc1ccccc1 | -16.5 |
| CCOc1ccc(NC(=O)CN(C)CC(=O)Nc2cccc(Cl)c2C)cc1OCC | -10.4 |
| Oc1ccc(N2CCN(C(=S)NCc3ccccc3)CC2)cc1 | 11.3 |
| O=c1c2c(nc3nc(NCc4ccccc4Cl)[nH]n13)CCC2 | 24.8 |
| Cc1nnc2sc(-c3ccco3)nn12 | 14.9 |
| Cc1ccccc1CNC(=O)C1CCC(=O)N(C2CCCCCC2)C1 (centres unmarked) | 3.69 |
| Fc1ccc(-c2ccc(Nc3cccc(F)c3)nn2)cc1 | 21.3 |
| COc1ccc(-c2nc(CS(=O)CC(=O)NCCc3ccc(OC)c(OC)c3)c(C)o2)cc1 (centres unmarked) | -2.18 |

| SMILES | hERG current change (%, negative = inhibition) at 10uM [%] |
| --- | --- |
| CC(C)N(Cc1nccn1C)C(=O)c1ccc2oc(CCCc3ccccc3)nc2c1 | -41.6 |
| O=C(COC(=O)/C=C/c1ccccc1Cl)NC(=O)Cc1ccccc1 | 11.2 |
| Cc1ccc(C(=O)COC(=O)CNC(=O)COc2ccccc2C)cc1C | 9.34 |
| Cl.OC1(c2ccc(F)cc2)CCNC1 (centres unmarked) | 15.8 |
| N#CC1(c2ccccc2)CCCN1C(=O)c1ccccc1Cl (centres unmarked) | 5.5 |
| CC1CCC(N2CCN(S(=O)(=O)Cc3ccccc3)CC2)CC1 (centres unmarked) | -4.22 |
| Cc1onc(-c2ccccc2Cl)c1C(=O)Oc1cccc2cccnc12 | 9.99 |
| CC1(C)C(CC2OCC(CN3CCCCC3)O2)[C@H]2CC[C@@H]1C2 (some centres unmarked) | -0.439 |
| COc1ccc(CCNC(=O)c2ccc3c(c2)N(Cc2ccc(C)cc2)CCS3)cc1OC | 8.07 |
| O=C(O)Cn1cc(/C=N/Nc2ccc([N+](=O)[O-])cn2)c2ccccc21 | 23.9 |
| CC(C)n1c(O)c(N=Nc2ccc(Cl)nn2)c2ccccc21 | 3.18 |
| Cn1c(=O)c2c(nc(SCC(=O)Nc3ccccc3)n2C)n(C)c1=O | -4.52 |
| COc1ccc(NC(=O)c2cnc(SCC(=O)NCCc3ccccc3)n(C)c2=O)cc1 | 13 |
| CC(NCc1ccccc1Cl)C(=O)Nc1ccc(C#N)cc1 (centres unmarked) | -32.3 |
| COc1ccccc1N1CCN(C(=O)c2cc(-c3ccc4c(c3)OCO4)on2)CC1 | 1.5 |
| Cc1cc(C=O)c(C)n1-c1ccc(N2CCOCC2)c([N+](=O)[O-])c1 | -1.07 |
| COc1cccc(CNS(=O)(=O)c2ccc3c(c2)CC(C)N3C(C)=O)c1 (centres unmarked) | -3.24 |
| CC(=O)NC(CC(=O)NCCc1ccccc1)c1ccccc1 (centres unmarked) | 4.67 |
| Cc1cc(C(C)(C)C)oc1C(=O)NCCCNC(=O)c1oc(C(C)(C)C)cc1C | 3.46 |

| SMILES | hERG current change (%, negative = inhibition) at 10uM [%] |
| --- | --- |
| Cc1ccc(S(=O)(=O)N2CCN(CC(=O)NC3CCCc4ccccc43)CC2)cc1C.O=C(O)C(=O)O (centres unmarked) | -20.5 |
| CC1Cc2cc(-c3csc(NC(=O)Cc4cccs4)n3)ccc2N1S(C)(=O)=O (centres unmarked) | 7.28 |
| Cc1cc(=O)oc(C)c1C(=O)NCCCN1CCN(c2ccc(F)cc2)CC1 | -53.6 |
| CCOC(=O)c1c(NC(=O)COC(=O)c2cc(OC)c(OC)cc2[N+](=O)[O-])sc(C)c1C | 3.48 |
| Cc1onc(-c2c(F)cccc2Cl)c1C(=O)ONC(=O)c1ccccc1 | 8.85 |
| COCCNC(=O)/C(C#N)=C/c1c(N2CCN(c3ccccc3)CC2)nc2ccccn2c1=O | -20.7 |
| NC(=O)c1c(-c2cccs2)csc1N | 3.94 |
| Cc1ccc(C(=O)Nc2nc(-c3ccc([N+](=O)[O-])cc3)cs2)o1 | 15.9 |
| COC(=O)c1cccc(NC(=O)c2cccc(OC)c2)c1 | -2.12 |
| CC(C)Cc1nnc(NS(C)(=O)=O)s1 | 19.3 |
| O=S(=O)(NC1CC1)c1ccc(S(=O)(=O)N2CCCC(c3nc(-c4cccnc4)no3)C2)cc1 (centres unmarked) | -26.3 |
| CC1(C)Cc2c(sc3nc(C4CC4)n(N)c(=O)c23)CO1 | 9.63 |
| Cc1cc(C)cc(NC(=O)CCN2C(=O)c3ccccc3S2(=O)=O)c1 | -7.45 |
| CCCn1c(SCC(=O)N2CCCc3ccccc32)nnc1-c1ccccn1 | -3.47 |
| Nc1nonc1-n1nnc(C(=O)N/N=C/c2cccc(Cl)c2)c1CN1CCCCCC1 | 18.4 |
| O=S(=O)(Nc1nccs1)c1ccc(NS(=O)(=O)c2cccs2)cc1 | 8.27 |
| O=C(Nc1cc(Cl)ccc1-n1cncn1)c1cn2ccccc2n1 | -1.79 |
| CSc1ncc(Cl)c(C(=O)NCc2ccc3c(c2)OCO3)n1 | 7.54 |
